Here are results for 14 molecules from article PMC12136788.

T1: UNK ZnF1-6 (called full-length) (human, UniProt Q9C0B0 30-357)
T1 sequence: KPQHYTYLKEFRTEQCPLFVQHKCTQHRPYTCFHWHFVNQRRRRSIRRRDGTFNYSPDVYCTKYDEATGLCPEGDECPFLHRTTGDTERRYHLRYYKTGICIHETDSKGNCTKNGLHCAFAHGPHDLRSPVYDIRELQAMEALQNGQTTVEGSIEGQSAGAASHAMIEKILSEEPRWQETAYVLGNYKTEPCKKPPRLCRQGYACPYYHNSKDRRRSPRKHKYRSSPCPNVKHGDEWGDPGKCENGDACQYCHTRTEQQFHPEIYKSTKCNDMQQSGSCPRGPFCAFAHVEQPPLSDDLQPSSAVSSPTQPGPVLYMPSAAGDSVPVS

B1: chr6:137492198:137493351:-|three_prime_utr|ENSG00000177468|control|control|control (ssRNA)
RNA: GGGAGUUCUACAGUCCGACGAUCGAGAUCUCAGACUCCACUUGACCCCCGGAGGGAAAGGACCAAAAUCAAACCGCAAUUUCUAGGUGGUAGCAAAGGGGGACUCGAACCAGAUGUCGUGUGUUUUGCAUGCAUGCUUCUUUUCAACAGAGGAUUGAGCAUCA
B2: chr22:38485951:38486139:-|CDS|ENSG00000100201|unk|FALSE|bound_elsewhere (ssRNA)
RNA: GGGAGUUCUACAGUCCGACGAUCUAGUAGCACCACCUCAACUGGGAGAAGUUCACAGAGCUCUAGCCAGCAGUUUAGUGGGAUAGGCCGGUCUGGGCAGCAGCCACAGCCACUGAUGUCACAACAGUUUGCACAGCCUCCGGGCAACAGAGGAUUGAGCAUCA
B3: chr19:4361374:4361475:-|3pUTR|ENSG00000141985|msi1|total|mutant (ssRNA)
RNA: GGGAGUUCUACAGUCCGACGAUCCAGGACCCCACACUUGGGUGGGGGGGCUUAUCUGGGUGGGUGGGGAUGCCUGUUUACACCCGCGCUGACUCCCAACGGUGACGGCUCCCUUCCCCACUCCAUGGCGCCAGCCUCCUCCCCCAACAGAGGAUUGAGCAUCA
B4: chr1:206732925:206733026:+|3pUTR|ENSG00000162889|msi1|total|mutant (ssRNA)
RNA: GGGAGUUCUACAGUCCGACGAUCAAGUGAGCAAGGUGCUCUUGAACCUGUGCUCAUUUUGCAAUUUUAUCAGUAAUUUGACUCCGAGUUUUUACGAAACCUCUUUUGUUGUCCUUGCCCCACUCCUCUCCACCAGACGCCUUCCAACAGAGGAUUGAGCAUCA
B5: chr1:35420597:35420698:+|3pUTR|ENSG00000146463|msi1|FALSE|bound_elsewhere (ssRNA)
RNA: GGGAGUUCUACAGUCCGACGAUCGUUCCUCUUAUUUUGUCUUUUGCACCAGUUUCUGGAGGCCCUUGUCAUUUCAAAAAGGAUAGUCUCUUUUCUUACUCUGGCAAACCUGUGAGUGAUUCCACAAAGAUACAGUAUUACUUACAACAGAGGAUUGAGCAUCA
B6: chr1:51271806:51271833:+|3pUTR|ENSG00000123091|msi1_unk|FALSE|overlapping (ssRNA)
RNA: GGGAGUUCUACAGUCCGACGAUCCAUUUGGGUCAAGGUUUUAUUAAAAGCUACAUUUUAUAACACUGGCACACACAAAAAAGUAGUUUUAAGCUUGUUUGCACAGUUCUUUUUUUCCAUUGGAAAUGGAAUUCAUUGCCUUAGCAACAGAGGAUUGAGCAUCA
B7: chr3:41225420:41225524:+|CDS|ENSG00000168036|unk|FALSE|unique (ssRNA)
RNA: GGGAGUUCUACAGUCCGACGAUCCAUGCGUUCUCCUCAGAUGGUGUCUGCUAUUGUACGUACCAUGCAGAAUACAAAUGAUGUAGAAACAGCUCGUUGUACCGCUGGGACCUUGCAUAACCUUUCCCAUCAUCGUGAGGGCUUCAACAGAGGAUUGAGCAUCA
B8: chr11:119418913:119419014:-|3pUTR|ENSG00000154096|msi1|FALSE|unique (ssRNA)
RNA: GGGAGUUCUACAGUCCGACGAUCAUCGGGACCAGAAACCUGGGAGAGACUUGGAUGAGGAGUGGUUGGGCUGUGCCUGGGCCUAGCACGGACAUGGUCUGUCCUGACAGCACUCCUCGGCAGGCAUGGCUGGUGCCUGAAGACCAACAGAGGAUUGAGCAUCA
B9: ENSG00000198589:be:win_9351|3pUTR|ENSG00000198589|bound_else_gene|NA|bound_elsewhere_windowed (ssRNA)
RNA: GGGAGUUCUACAGUCCGACGAUCAGCCACUGUUGUUUUGUUGGGGCACCCCCUUCCCUCCCCGGGUUUGCAAAUAGAGGCUACCGGGUGCUGUAUUCAGCAACACCUGUUUUACUAUUUGUUAUUAAACUAUCAUCUCCACCUCAACAGAGGAUUGAGCAUCA
B10: chr2:159349074:159349175:-|CDS|ENSG00000123636|unk|total|mutant (ssRNA)
RNA: GGGAGUUCUACAGUCCGACGAUCUGGUGUGGUUACUUCUAAUAUUCCAUUUACAUCAUCUGUACCCCGUCCCGGAUCGGGGUCCGGGUUAUCAGAAGGAAAUGGUAAUUCAUUCUUGACUUCCAAUGUUGCUUCAAGUAAAAGCAACAGAGGAUUGAGCAUCA
B11: chr12:79451877:79451978:+|3pUTR|ENSG00000067715|msi1|total|mutant (ssRNA)
RNA: GGGAGUUCUACAGUCCGACGAUCCCUUCAUUUUUGAUGAGGUGAUUUAAAUUUUGUUUCACUUUGUGCCGUGAAUUCCACAGCCGUUUUCUGAUUGUUGUUAAAAAUGACUUAACAUAUUACACAGAUAUUCAAUAAAAAUGUCAACAGAGGAUUGAGCAUCA
B12: chr11:69651622:69651678:+|3pUTR|ENSG00000110092|msi1_unk|total|mutant (ssRNA)
RNA: GGGAGUUCUACAGUCCGACGAUCUUAUACCCCAAUAAUCAACUCGUUUUUAUAUUAAUGUACUUGUUUCUCUGUUGUAAGAACCGGCAUUAACACAAAGGAGGCGUCUCGGGAGAGGAUCCGGUUCCAUCCUUUACGUGUUUACAACAGAGGAUUGAGCAUCA
B13: chr10:96238888:96239129:-|three_prime_utr|ENSG00000095585|control|control|control (ssRNA)
RNA: GGGAGUUCUACAGUCCGACGAUCAGUGUGGCCCAACAGGAUCUUCUAAGCCUUUGCAACACAAAGUUUGAUUCCCAGCAAGAUAGCAUCAACCUCAUCUGGAGCUUGUUAGAAAUGCAGAAUCUUGGCCCCACCCUAGAACUACAACAGAGGAUUGAGCAUCA
B14: chr1:153933785:153933886:-|CDS|ENSG00000198837|msi1|total|mutant (ssRNA)
RNA: GGGAGUUCUACAGUCCGACGAUCGGGAAGUUGGUGCAGAGGCUGGGGUCCAUCUUCCCUCAUUCUUUUCUGUGCUGCAGUGACCGAGGCCUUGGGGGUCCUGGAACCCCGGGGAUCACCUGUGCCCUGGCACGAUGGAAGUCUCAACAGAGGAUUGAGCAUCA

The other results are listed elsewhere or left out.

The target of this test is T1, UNK ZnF1-6 (called full-length). The test is described as follows: nsRBNS (natural sequence RNA bind-n-seq); RBNS binding buffer (assumed for nsRBNS): 25 mM Tris pH 7.5, 150 mM KCl, 3 mM MgCl2, 0.01% Triton X-100, 500 ug/ml BSA, 20 U/ml SUPERase-In, 4 C; UNK is unkempt and MSI1 is Musashi-1; names of the RNAs are library labels; protein concentration not given here; high values mean tight binding.
For the molecule B1, the binding signal was 0.796 enrichment R.

The molecule B2 came in with a binding signal of 0.714 enrichment R.

In turn, B3 had a binding signal of 0.721 enrichment R.

B4: the binding signal worked out at 0.379 enrichment R.

Turning to B5, the binding signal is 0.782 enrichment R.

In the case of B6, the binding signal was 0.568 enrichment R.

Regarding B7, the binding signal was found to be 0.6 enrichment R.

In turn, B8 had a binding signal of 0.948 enrichment R.

In the case of B9, the binding signal came to 1.28 enrichment R.

In turn, B10 showed a binding signal of 0.375 enrichment R.

In turn, B11 returned a binding signal of 0.573 enrichment R.

The molecule B12 gave a binding signal of 0.781 enrichment R.

The molecule B13 yielded a binding signal of 1.11 enrichment R.

For B14, the binding signal was 1.2 enrichment R.
